Measured values published in PubChem BioAssay AID588855 (National Center for Advancing Translational Sciences (NCATS), 2011).
Out of some 410,000 compounds screened, about 5,000 (1.2%) were called active. The shares of active, inactive and inconclusive entries below differ from those in the screen. Calls follow the shape of the dose curve; as a rule, active = well fitted inhibition curve with a large enough effect; inconclusive = small, poorly fitted or top-dose-only effect; inactive = no such curve, though single readings can be large or run the other way. Potencies of inconclusive entries are doubtful fits and often do not repeat.

Assay: qHTS for Inhibitors of TGF-b; also: nearly all actives have a fitted effect of over 65% in size
Settings: HepG2 CAGA-GFP TGF-b/SMAD3 reporter, GFP fluorescence, 18 h, TGF-beta stimulated, 500 pg/mL final; series mostly up to 46.1 µM; activity, negative = inhibition: at the top concentration
How it was run: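 TGF-beta reporter screen: HEPG2 CAGA-GFP, 1% FBS, 500 pg/mL TGF-beta final, 18 h; per-cell GFP summed per well; curves fitted and categorized by class.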
% is scaled to controls: 0 for no effect and ±100 for the full control effect; potency is read from the fitted curve at half-maximal effect; tags tell the direction and shape of the fitted curve.

| Structure (SMILES) | Potency | activity, negative = inhibition |
| --- | --- | --- |
| Cc1nn(-c2ccccc2)c(N2CCCC2)c1/C=N/Nc1ccc(S(N)(=O)=O)cc1[N+](=O)[O-] | inconclusive: 20 µM [inhibitor, single point] | – |
| CCOC(=O)N1CCN(C(=O)CCCn2nc(C)c3sc4ccccc4c3c2=O)CC1 | – | inactive: -9.25% |
| Cc1ccc(-c2c(CN3CCN(c4cccc(C)c4)C(C)C3)csc2C)cc1 (stereo unspecified) | inconclusive: 35.5 µM [inhibitor, single point] | – |
| COc1ccc(NC2=Nc3cccc4cccc2c34)cc1OC | inconclusive: 11.2 µM [inhibitor, partial curve, poor fit] | – |
| C/C=C(/C)C(=O)OC1c2c(ccc3ccc(=O)oc23)OC(C)(C)C1OC(=O)/C(C)=C\C (stereo unspecified) | active: 11.2 µM | – |
| CCn1c(=O)c(C(=O)CN(C)CC(=O)Nc2ccccc2Br)c(N)n(Cc2ccccc2)c1=O | inconclusive: 35.5 µM [inhibitor, single point] | – |
| C=C1C(=O)[C@]23C[C@H]1CCC2[C@]1(C)CCC[C@@](C)(C(=O)O)C1C[C@@H]3O (stereo partly specified) | active: 2.51 µM | – |
| CC(C)C1C(=O)N(Cc2cn(Cc3ccco3)nn2)CCS(=O)(=O)N1Cc1ccc(-c2ccccc2)cc1 (stereo unspecified) | inconclusive: 25.1 µM [inhibitor, single point] | – |
| COc1ccccc1C(=O)N1CCN(C(=O)[C@H]2O[C@@H](n3ccc(=O)[nH]c3=O)[C@H](O)[C@@H]2O)CC1 | – | inactive: 17.4% |
| O=C(N/N=C/c1c(O)ccc2ccccc12)c1[nH]ncc1Br | inconclusive: 3.98 µM [inhibitor, partial curve, poor fit] | – |
| O=C(C[n+]1csc2ccccc21)c1ccc(I)cc1 | – | inactive: -2.37% |
| Cc1cccc(N2C(N)=C(C#N)C(C#N)(C#N)C2c2ccccc2)c1 (stereo unspecified) | inconclusive: 35.5 µM [inhibitor, single point] | – |
| Cc1ccccc1-c1nn2c(=O)cc(CN3CCN(C(=O)/C=C/c4ccccc4)CC3)nc2s1 | inconclusive: 7.08 µM [inhibitor, partial curve, poor fit] | – |
| COC(C(=O)Nc1ccc(S(=O)(=O)Nc2ccc(C)c(C)c2)cc1)c1ccccc1 (stereo unspecified) | inconclusive: 25.1 µM [inhibitor, single point] | – |
| Cc1cc(C)c(C#N)c(Oc2ccccc2)n1 | – | inactive: 1.47% |
| O=S(=O)(NCC(c1cccs1)S(=O)(=O)c1ccccc1)c1ccc(F)cc1 (stereo unspecified) | active: 3.98 µM | – |
| COc1ccc(C(O)c2ncc(-c3cccc(OCc4ccccc4)c3)[nH]2)cc1F (stereo unspecified) | inconclusive: 35.5 µM [inhibitor, single point] | – |
| COc1ccc(CCNC(=O)CSc2nnc(-c3ccc(F)cc3)c3ccccc23)cc1OC | inconclusive: 35.5 µM [inhibitor, single point] | – |
| COc1ccccc1CNS(=O)(=O)c1c(C(=O)N2CCCC2)c(C)n(C)c1C | – | inactive: 10.2% |
| COc1ccc2c(C)cc(SCC(=O)NC3CCCC3)nc2c1 | inconclusive: 11.2 µM [inhibitor, single point] | – |
| Cc1ccc(S(=O)(=O)Nc2ccccc2/C=N/c2nc3ccccc3n2C)cc1 | inconclusive: 35.5 µM [inhibitor, single point] | – |
| COCCNC(=O)c1cc2c(=O)n3cccc(C)c3nc2n1C | – | inactive: -27.8% |

| Structure (SMILES) | Potency | activity, negative = inhibition |
| --- | --- | --- |
| O=C1NN(CCO)C(=S)Nc2ccccc21 | – | inactive: -8.59% |
| O=C(c1ccc2c(c1)OCCO2)N(Cc1cccnc1)c1nc2c(Cl)cccc2s1 | inconclusive: 20 µM [inhibitor, partial curve, poor fit] | – |
| COc1cccc(Cn2c(CNS(=O)(=O)c3ccc(F)c(Cl)c3)nc3cccnc32)c1 | inconclusive: 17.8 µM [inhibitor, partial curve, poor fit] | – |
| CC(=O)Nc1nc(C)c(Oc2ccccc2)c(=O)[nH]1 | inconclusive: 5.62 µM [inhibitor, single point] | – |
| O=C(Cc1csc(NC(=O)Nc2ccc(Cl)cc2)n1)NCc1cccnc1 | inconclusive: 0.112 µM [inhibitor, full curve, poor fit] | – |
| CC(=O)Nc1cccc(C(=O)/C=C/c2ccc(C)cc2)c1 | inconclusive: 15.8 µM [inhibitor, partial curve, poor fit] | – |
| COc1ccccc1CNC(=O)COC(=O)c1cccc(S(=O)(=O)N2CCCCC2)c1 | – | inactive: 12.3% |
| Cc1ccc(C=Nc2ccccc2C(N)=O)s1 | inconclusive: 35.5 µM [inhibitor, single point] | – |
| O=S(=O)(c1cccc(C(F)(F)F)c1)N1CCN(S(=O)(=O)c2ccc3c(c2)OCCO3)CC1 | inconclusive: 12.6 µM [inhibitor, partial curve, poor fit] | – |
| CC(C)OCCCN1CC(=O)N2C(c3cccc([N+](=O)[O-])c3)c3[nH]c4ccccc4c3C[C@H]2C1=O (stereo partly specified) | inconclusive: 35.5 µM [inhibitor, single point] | – |
| Cc1ncc([N+](=O)[O-])n1Cc1ccccc1 | – | inactive: 0% |
| O=C(CSc1nn(-c2ccc(F)cc2)c(=S)s1)N1CCN(C(=O)c2ccco2)CC1 | inconclusive: 7.94 µM [inhibitor, single point] | – |
| COc1ccc(NC(=O)C2=CC(c3ccc(C)cc3)=NS(=O)(=O)N2C)cc1OC | – | inactive: -16% |
| O=C(NCCCN1CCCC1=O)C(=O)NCC1OCCN1S(=O)(=O)c1ccc(Cl)cc1 (stereo unspecified) | – | inactive: -4.32% |
| C=Cc1ccc(Cn2c(C(=O)O)c(CNC3CCCCC3)c3ccc(C)cc32)cc1 | – | inactive: -4.03% |
| CCOc1ccc(NC(=O)c2c(NCc3cccnc3)sc3c2CCCC3)cc1 | inconclusive: 35.5 µM [inhibitor, single point] | – |
| O=C(O)c1cccc2cccc(-c3c4ccc(=O)c(O)c-4oc4c(O)c(O)ccc34)c12 | – | inactive: 0% |
| Fc1ccc(-c2cc(C(F)(F)F)nc(-n3cc(Cl)cn3)n2)cc1 | inconclusive: 0.501 µM [inhibitor, partial curve, poor fit] | – |
| N#Cc1nc(N(c2ccccc2)c2ccccc2)nc(-n2cccc2)n1 | inconclusive: 3.98 µM [inhibitor, single point] | – |
| Cc1cc(N2CC34C=CC(O3)C(C(=O)O)C4C2=O)no1 (stereo unspecified) | inconclusive: 0.126 µM [inhibitor, full curve, poor fit] | – |
| Fc1cc(NCc2ccccc2)nc(NCc2ccccc2)n1 | inconclusive: 35.5 µM [inhibitor, single point] | – |
| O=S(=O)(Nc1ccc(Br)cc1F)c1ccc2nc(-c3ccccc3)[nH]c2c1 | inconclusive: 12.6 µM [inhibitor, single point] | – |

| Structure (SMILES) | Potency | activity, negative = inhibition |
| --- | --- | --- |
| COc1cccc(N2CCN(C(=O)c3cccc(-n4c(C)nc5cccnc54)c3)CC2)c1 | inconclusive: 35.5 µM [inhibitor, single point] | – |
| CCOC(=O)c1ccc(NC(=O)N2CCN(S(C)(=O)=O)CC2)cc1 | inconclusive: 2.51 µM [inhibitor, partial curve, poor fit] | – |
| COc1cccc(N(CC(=O)NCC2CCCO2)C(=O)CCC(=O)Nc2nccs2)c1 (stereo unspecified) | – | inactive: 9.98% |
| CCC(C)[C@H](NC(=O)C1CCC(CNC(=O)[C@@H]2CCCN2C(=O)OC(C)(C)C)CC1)C(=O)O (stereo partly specified) | – | inactive: -11.3% |
| Cc1ccc(-c2[nH]ncc2CNCc2ccccc2)cc1 | – | inactive: 0.844% |
| O=C(CCS(=O)(=O)c1cccc2nonc12)Nc1c(F)cccc1F | inconclusive: 0.708 µM [inhibitor, full curve, poor fit] | – |
| Cc1cc(NC(=O)c2c(Cl)cnn2C)no1 | inconclusive: 3.98 µM [inhibitor, partial curve, poor fit] | – |
| C(=N\Nc1nc(N2CCCCCC2)nc(N2CCCCCC2)n1)/c1ccccc1 | inconclusive: 5.01 µM [inhibitor, partial curve] | – |
| O=C1OCC(CC2=C(O)C(=O)OC2)=C1O | – | inactive: -1.78% |
| O=C(NCc1ccco1)c1ccc(Cn2c(SCc3ccc(F)cc3)nc3cccnc32)cc1 | inconclusive: 35.5 µM [inhibitor, single point] | – |
| O=C(c1ccccn1)N(Cc1ccco1)C1(C(=O)NC2CCCC2)CCCCC1 | – | inactive: -26.8% |
| CCCCn1c(SCC(=O)Nc2sc3c(c2C(N)=O)CCC3)nnc1-c1ccccc1 | inconclusive: 35.5 µM [inhibitor, single point] | – |
| Cc1ccc(CNC(=O)c2nc(SCc3ccccc3F)ncc2Cl)cc1 | inconclusive: 1.58 µM [inhibitor, partial curve, poor fit] | – |
| Cc1cccc(N2CCN(C(=S)Nc3ccc4nc(N5CCN(C)CC5)cc(C)c4c3)CC2C)c1 (stereo unspecified) | inconclusive: 11.2 µM [inhibitor, partial curve, poor fit] | – |
| COc1ccc(CNc2nc3ccccc3n2Cc2ccccc2)cc1OC | inconclusive: 35.5 µM [inhibitor, single point] | – |
| COc1ccc(OCCCC(=O)Nc2ncn[nH]2)cc1 | – | inactive: 10.2% |
| CCOc1ccc(C(=O)NCc2nc3cccnc3n2Cc2ccc(F)cc2)cc1OCC | inconclusive: 14.1 µM [inhibitor, partial curve, poor fit] | – |
| CCCn1nc(CC(=O)O)c2ccccc2c1=O | inconclusive: 3.55 µM [inhibitor, single point] | – |
| COc1ccc(CCN(C)C(=O)c2ccc(OCC(=O)N3CCOCC3)c(OC)c2)cc1OC | – | inactive: -2.49% |
| Cc1sc2c(c1C)c(=O)n(-c1ccc(Cl)cc1)c(=O)n2Cc1cc(=O)n2ccccc2n1 | inactive | – |
| CC(C)(C)OC(=O)NCCc1nnc(SCC(=O)Nc2cccc(Cl)c2)o1 | inconclusive: 1.12 µM [inhibitor, partial curve, poor fit] | – |
| CC1(C)CC2CC(C)(CN2CC(=O)C(C#N)c2ccccc2)C1 (stereo unspecified) | inconclusive: 7.94 µM [inhibitor, partial curve] | – |
